Reference: publication PMC4336329 (PLoS ONE, 2015)
The whole screen tested about 310,000 compounds, of which about 2,200 (0.71%) showed an effect of 50% or more. Effects have a minus sign here. Some of the results follow.

Target: human ether-à-go-go-related gene (hERG) potassium channel (human, UniProt Q12809)
Experiment: primary screen, population patch clamp on CHO cells stably expressing hERG

Chain of human ether-à-go-go-related gene (hERG) potassium channel (Q12809 whole entry, looked up): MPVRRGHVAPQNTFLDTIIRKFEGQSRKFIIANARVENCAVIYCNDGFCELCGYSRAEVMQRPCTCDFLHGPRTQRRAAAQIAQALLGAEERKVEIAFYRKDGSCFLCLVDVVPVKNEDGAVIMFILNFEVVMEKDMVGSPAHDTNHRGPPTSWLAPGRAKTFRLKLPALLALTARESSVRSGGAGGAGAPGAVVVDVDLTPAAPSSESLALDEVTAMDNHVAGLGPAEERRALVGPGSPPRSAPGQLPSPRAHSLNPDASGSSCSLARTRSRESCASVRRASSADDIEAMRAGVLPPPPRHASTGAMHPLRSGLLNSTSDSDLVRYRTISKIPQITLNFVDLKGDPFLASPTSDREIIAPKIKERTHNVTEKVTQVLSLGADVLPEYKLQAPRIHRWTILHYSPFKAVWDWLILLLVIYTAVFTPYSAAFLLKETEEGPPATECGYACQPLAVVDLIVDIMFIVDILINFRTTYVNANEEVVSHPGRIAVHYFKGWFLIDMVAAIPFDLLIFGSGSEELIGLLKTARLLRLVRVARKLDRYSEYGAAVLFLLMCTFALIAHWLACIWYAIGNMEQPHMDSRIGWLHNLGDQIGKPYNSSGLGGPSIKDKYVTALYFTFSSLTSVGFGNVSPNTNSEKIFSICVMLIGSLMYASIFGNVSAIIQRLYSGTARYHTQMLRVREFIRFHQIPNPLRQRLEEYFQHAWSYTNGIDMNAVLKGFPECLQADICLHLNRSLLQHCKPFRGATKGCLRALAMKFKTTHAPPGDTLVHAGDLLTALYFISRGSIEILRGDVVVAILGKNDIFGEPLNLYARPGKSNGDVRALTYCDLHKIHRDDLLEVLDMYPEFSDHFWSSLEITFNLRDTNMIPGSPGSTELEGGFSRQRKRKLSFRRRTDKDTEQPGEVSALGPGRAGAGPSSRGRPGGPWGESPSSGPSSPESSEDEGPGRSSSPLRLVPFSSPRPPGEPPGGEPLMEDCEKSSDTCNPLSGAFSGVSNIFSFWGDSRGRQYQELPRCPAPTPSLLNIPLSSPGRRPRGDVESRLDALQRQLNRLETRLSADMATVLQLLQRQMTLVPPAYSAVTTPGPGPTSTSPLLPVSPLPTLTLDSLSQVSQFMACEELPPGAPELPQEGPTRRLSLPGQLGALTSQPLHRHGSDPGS

SMILES	hERG current change (%, negative = inhibition) at 1uM [%]
Cc1ccccc1NC(=O)CC(O)(C(F)(F)F)C(F)(F)F	-3.01
CCOC(=O)c1c(-c2ccc(C)cc2)csc1/N=C/N(C)C	2.17
C/C(CCN1CCc2nc(-c3ccccc3)c(-c3ccccc3)cc2C1)=N\O[C@@H](C)c1cc(-c2c(C)cc(C)cc2C)no1	3.32
Cc1ccc(S(=O)(=O)N2[C@@H](c3ccc(Cl)cc3)C(C(=O)O)=CC[C@H]2c2ccc(Cl)c(Cl)c2)cc1	17.3
O=C(CNC(c1ccccc1)c1ccccc1)Nc1cc([N+](=O)[O-])ccc1Cl	16.3
CCCCCCOC(=O)c1ccccc1NC(=O)/C=C/C(=O)O	-5.34
O=C(COc1ccc(S(=O)(=O)N2CCOCC2)cc1Cl)NC1CCCCC1	10.7
Cc1ccccc1NC(=O)CSc1nnc(C2CC2)n1CC1CCCO1 (stereo not shown)	17.2
CCc1ccccc1NC(=O)CN1CCN(C(=O)COc2ccccc2C#N)CC1	8.9
COc1ccc(NC(=O)CN(C)C(=O)c2ccc(NS(=O)(=O)c3ccc4[nH]c(=O)[nH]c4c3)cc2)cc1	14.8
O=C(NC1CCCCCC1)c1ccc(Br)o1	6.47
CCOC(=O)Cn1nnnc1CN1CCN(c2ccc(OC)cc2)CC1	1.34
CC1(NC(=O)c2cccc(S(=O)(=O)N3CCN(c4ccc(F)cc4)CC3)c2)CCS(=O)(=O)C1 (stereo not shown)	9.97
C/C(=N/NC(=O)c1ccncc1)C1=C(O)CC(C)(C)CC1=O	13.7
Cc1ccc(S(=O)(=O)/C(C#N)=C/c2c(N3CCN(C)CC3)nc3c(C)cccn3c2=O)cc1	-4.1
COc1cccc(OC)c1C(=O)Nc1cccc(C(=O)Nc2cccc(C(=O)O)c2)c1	17.8
Nc1nc(COC(=O)C2CCN(C(=O)c3ccc(Cl)cc3)CC2)nc(Nc2ccccc2)n1	-12.2
Cc1ccc(S(=O)(=O)N2[C@@H](c3cccc(Cl)c3)C(C(=O)O)=CC[C@H]2c2ccc(Cl)c(Cl)c2)cc1	15
Cc1sc2ncnc(SCC(=O)NCC(C)C)c2c1C	0.602
O=C(O)CCc1nc(-c2ccccc2Cl)no1	15.8
COc1ccc(CC(=O)OCC(=O)NC(=O)NC2CCCCC2)cc1	7.43
COC1(NS(=O)(=O)c2ccc(Br)cc2)C(C)=CC(=O)C=C1C	23.2

SMILES	hERG current change (%, negative = inhibition) at 1uM [%]
N#Cc1ccc(CN2CCN(C(=O)CCNS(=O)(=O)c3ccc(F)c(Cl)c3)CC2)cc1	-29.3
COc1ccc(Nc2ccccc2NC(=O)c2ccccc2Br)cc1	5.55
CCn1c2ccccc2c2nnc(SCC(=O)NCc3cccs3)nc21	13
CC(c1ccccc1)N(C)C(=O)CN1CCN(S(=O)(=O)c2ccc3c(c2)OCCCO3)CC1 (stereo not shown)	10.3
Cc1ccsc1C(=O)OCC(=O)N1CCc2ccccc2C1	2.31
O=C(NCCC1=CCCCC1)c1cc2c(s1)CS(=O)(=O)C2	1.51
CC(=O)c1cc(F)ccc1OCC(=O)N1CCCc2ccccc21	10.8
Cc1cc(C)c2nc(NNC(=O)c3ccc(S(=O)(=O)N4CCCC(C)C4)cc3)sc2c1 (stereo not shown)	9.1
COc1cc(C(=O)NC(=S)Nc2cccc(-c3cc4ccccc4oc3=O)c2)cc(OC)c1OC	7.7
CC(CCN1CCN=C1Nc1ccccc1)c1ccccc1 (stereo not shown)	-1.71
CCN(CCCNC(=O)CCCN1C(=O)COc2ccc(C)cc21)c1cccc(C)c1	2.11
CCS(=O)(=O)c1ccc(OC)c(N=Nc2ccc(O)c3ncccc23)c1	9.51
COc1ccc(C)cc1S(=O)(=O)Nc1ccc(F)cc1	9.23
Clc1ccc(Cn2ncc3c(N4CCCC4)ncnc32)cc1	-6.47
COc1ccc(C(=O)NC2c3ccccc3-c3ccccc32)cc1	23.6
Cc1ccnc(SCC(=O)N2CCc3ccccc3C2)n1	10.3
Cc1ccc(N2CCN(C(=O)CN3C(=O)c4ccccc4C3=O)CC2)cc1	-1.58
CCN(CC)CCCN=C1N[C@@H](c2ccccc2)C(C(=O)OC)=C(C)N1CC	14.7
COc1cc2[nH]c(C(=O)N3CCN(C)CC3)cc2c(OC)c1OC	6.2
CC(=O)Oc1ccc2c(c1)Oc1cc(OC(C)=O)ccc1C21OC(=O)c2ccccc21	9.29
COc1cc(C)c(NC(=O)Cc2ccsc2)cc1OC	23.1
CC(=O)NC(Cc1ccccc1)C(=O)NC1CCN(C(=O)c2cnccn2)CC1 (stereo not shown)	2.78

SMILES	hERG current change (%, negative = inhibition) at 1uM [%]
CN1CCN(CCNC(=O)c2cn(Cc3ccccc3F)nn2)CC1	7.06
CCOc1ccc(/C=N/N2C(C)CCCC2C)cc1 (stereo not shown)	12
Cc1ccc2nc(SC(C)C(=O)N3CCCC3)[nH]c2c1 (stereo not shown)	17.3
CCOC(=O)N1CCN(C(=O)c2ccc3c(=O)n(Cc4ccc(OC)cc4)c(=S)[nH]c3c2)CC1	4.27
O=C(O)c1cccc(S(=O)(=O)N2CCC(Cc3ccccc3)CC2)c1	15
C=CCc1c(O)c(CC)cc2c(C)cc(=O)oc12	13.6
COc1ccc(CC2CC(=O)N(c3ccc(C)cc3)C2=O)cc1 (stereo not shown)	16
COc1cc(OC)c(OC)cc1CN1CCN(Cc2ccc(C(F)(F)F)cc2)CC1	3.19
CCn1c(SCC(=O)NC2CCCCC2)nnc1-c1ccccn1	5.2
CCOC(=O)C1=C(CN2CCSCC2)NC(=O)NC1c1ccc2c(c1)OCO2 (stereo not shown)	-3.44
Nc1cnc(Br)cc1Br	6.15
CCS(=O)(=O)N1Cc2ccccc2CC1C(=O)Nc1ccccc1OC (stereo not shown)	9.91
COc1ccc(-c2nn(-c3ccccc3)cc2C(=O)NC2CCCCC2C)cc1 (stereo not shown)	7.18
O=c1cc(C(F)(F)F)[nH]c2ccc(C(F)(F)F)cc12	13
CCOC(=O)Cc1csc(NC(=O)c2cnc3sc(C)cn3c2=O)n1	6.11
CS(=O)(=O)N(CC(O)CON=C1c2ccccc2-c2ccccc21)c1ccc(F)cc1 (stereo not shown)	17.5
Cc1ccc(SCC(=O)OCC(=O)NCCCc2ccccc2)cc1	14.5
COc1cc(C(C)=O)ccc1OCC(O)CN1CCN(c2ccc(F)cc2)CC1 (stereo not shown)	-10.8
OCCCNC(=S)Nc1ccc(Br)cc1Cl	15.5
CS(=O)(=O)c1nc(-c2ccc(Br)cc2)cc(-c2ccccc2)c1C#N	7.03
C=CCOc1ccccc1CNCCc1ccc(S(N)(=O)=O)cc1.Cl	-6.97
CN(C)S(=O)(=O)N(CC(=O)NCCSCc1ccc(Cl)cc1)c1ccccc1	9.35

SMILES	hERG current change (%, negative = inhibition) at 1uM [%]
COC(=O)C1C2c3ccccc3OC1(C)N=c1s/c(=C/c3cnn(C)c3C)c(=O)n12 (stereo not shown)	-5.94
CCN(CC)S(=O)(=O)c1ccc2[nH]cc(C(=O)NC3CC3)c(=O)c2c1	18.2
CCCN(C(=O)CN1C(=O)NC2(CCCCCC2)C1=O)C1CCS(=O)(=O)C1 (stereo not shown)	17.1
Cc1ccccc1NC(=O)CSc1nc2ccccc2c2nc(CCn3cncc3C)nn12	-33.1
Cc1ccc(S(=O)(=O)CCC(=O)NC2CCCCC2)cc1	6.91
CNC(=O)/C(C#N)=C/c1ccc(-c2ccccc2[N+](=O)[O-])o1	13.3
CCCOC(=O)c1ccc(Nc2cc(C)nc3ncnn23)cc1	-3.17
O=C(NCc1cccc(Cl)c1)c1ccc2nc(N3CCOCC3)sc2c1	1.59
O=C(CN1C(=O)c2ccccc2S1(=O)=O)NCc1ccco1	12.4
Cn1c(-c2ccccc2)cnc1N	11.4
O=C(CSc1nnc(-c2ccc(Cl)cc2)n1Cc1ccco1)c1cccs1	-6.36
CN(C(=O)c1ccccc1Cl)C1CCCCC1	4.55
CC[C@H](CO)Nc1nc(Nc2cccc(Cl)c2)c2ncn(C(C)C)c2n1	8.43
COc1ccccc1/C=C1\SC(=O)N(CCC(=O)NCCCn2ccnc2)C1=O	3.78
COc1ccccc1N(CC(O)CN1CCOCC1)S(=O)(=O)c1ccccc1 (stereo not shown)	9.84
COC1CCCN(C(=O)c2cccc(OC3CCN(S(C)(=O)=O)CC3)c2)C1 (stereo not shown)	12.6
CCc1c(C(=O)Nc2ccc(OC)cc2)[nH]c(C)c1C(C)=O	4.29
COc1ccc(NC(=O)CN2C(=O)S/C(=C/c3cccn3-c3ccc(C(=O)O)cc3)C2=O)cc1	11.8
CN1CCc2c(sc(/N=C/c3cc(C(C)(C)C)ccc3O)c2C#N)C1	8.24
CCOc1ccc(C(=O)Nc2ccc(S(=O)(=O)N3CCN(C)CC3)cc2)cc1	11.2
Cc1cc(C)cc(OCC(=O)N2CCCCCC2)c1	6.75
COc1ccc(C(=O)NCCn2cc(SCC(=O)NCc3ccco3)c3ccccc32)cc1	4.22
